In PubChem BioAssay AID485294 (National Center for Advancing Translational Sciences (NCATS), 2010):
The campaign covered roughly 370,000 compounds. About 150 (0.041%) were called active. This list was built around the results that the source calls inconclusive (neither active nor inactive); the mix of calls is not that of the screen. The call rests on the fitted dose curve; in most records, active means well fitted inhibition curve with a large enough effect; inconclusive means small, poorly fitted or top-dose-only effect; inactive means flat fitted curve, though single readings scatter. No potency is given beside an inconclusive call; the fits are too rough.
Further: nearly all actives have a fitted effect of over 25% in size.
Potency means the concentration at half of the fitted maximal effect; tags describe the fitted curve by direction and shape.

What follows are compounds tested against Beta-lactamase (Escherichia coli (strain K12)) (UniProt P00811) (assay: qHTS Inhibitors of AmpC Beta-Lactamase (assay with detergent)). Conditions: AmpC hydrolysis of nitrocefin, absorbance 480 nm, 0.01% Triton; series mostly up to 114 µM.
UniProt P00811, sequence (P00811 whole entry, looked up): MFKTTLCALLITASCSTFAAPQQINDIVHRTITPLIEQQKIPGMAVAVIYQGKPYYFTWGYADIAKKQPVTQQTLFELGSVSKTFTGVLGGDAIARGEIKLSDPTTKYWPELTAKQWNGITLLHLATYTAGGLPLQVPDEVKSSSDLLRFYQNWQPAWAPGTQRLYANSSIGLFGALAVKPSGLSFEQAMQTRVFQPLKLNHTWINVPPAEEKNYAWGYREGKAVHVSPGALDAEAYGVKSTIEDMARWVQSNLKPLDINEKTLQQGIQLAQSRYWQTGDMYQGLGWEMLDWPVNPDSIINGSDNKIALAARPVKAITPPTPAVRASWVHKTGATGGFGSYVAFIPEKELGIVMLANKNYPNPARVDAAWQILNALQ
Outline: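 20 mM phosphate pH 7.0 + 0.01% (detergent screen) or 0.0001% Triton X-100; 5.3 nM AmpC reagent; cpd preinc 15 min RT; nitrocefin (800 uM stock) to start; A480 q20 s × 4 min; Activity was normalised to no-enzyme and no-compound control wells.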
With `CCNc1cc(=O)n(C)c(=O)n1C` the Potency was inconclusive [inhibitor, single point]. For `COCc1nnc(NC(=O)CC(C)c2ccccc2)s1` (configuration not stated), the Potency was inconclusive [inhibitor, full curve, poor fit]. In the case of `Cc1cccc(NC2(C(F)(F)F)N=C3SCCN3C2=O)n1` (configuration not stated), the Potency is reported as inconclusive [inhibitor, single point]. With `N#CC1(NC(=O)CSc2ccccn2)CCCCC1` the Potency was inconclusive [inhibitor, full curve, poor fit]. With `Cn1cc(S(=O)(=O)N2CCCC2)cc1C(=O)NCCc1ccccc1` the Potency was inconclusive [inhibitor, partial curve, poor fit]. `COC(=O)CSc1nnc(CNC(=O)c2cccc(C)c2)n1-c1ccccc1OC` was tested, and the Potency was inconclusive [inhibitor, full curve, poor fit]. `O=C(COC(=O)Cc1ccc(S(=O)(=O)N2CCOCC2)s1)NCCc1ccccc1` was tested, and the Potency was inconclusive [inhibitor, single point]. For `Cc1ccc(S(=O)(=O)NCCC(=O)Nc2cc(S(=O)(=O)N(C)C)ccc2C)cc1C`, the Potency was “inactive”. In the case of `Cc1ccc(S(=O)(=O)Nc2ccccc2CNc2c(C)n(C)n(-c3ccccc3)c2=O)cc1`, the Potency is reported as inconclusive [inhibitor, full curve]. With `CC1=Nc2ccccc2/C1=C/c1c(O)n(C)c(=O)[nH]c1=O` the Potency was “inactive”. With `COc1ccc(C2=NS(=O)(=O)N(C)C(C(=O)NC3CCCCC3)=C2)cc1OC` the Potency was inconclusive [inhibitor, full curve, poor fit]. `O=C(/C=C/c1cc([N+](=O)[O-])ccc1OC(F)F)Nc1cccc(OC(F)F)c1` was tested, and the Potency was inconclusive [inhibitor, full curve, poor fit]. With `CCOC(=O)N1CCN(C(=O)c2ccc3c(c2)N(C)C(=O)/C(=C\c2ccc(OCC)c(OC)c2)S3)CC1` the Potency was “inactive”. For `COc1cc2c(C(=O)NCc3ccc4c(c3)OCO4)cn(C)c(=O)c2cc1OC`, the Potency was inconclusive [inhibitor, single point]. With `CCOC(=O)Nc1cc(OCC)c(NC(=O)C2CC2)cc1OCC` the Potency was “inactive”. For `Cc1cnc(NC(=O)c2cc3c(C)nn(-c4ccccc4)c3s2)s1`, the Potency was “inactive”. With `O=C(c1cccs1)N1C(=O)c2cccc3cccc1c23` the Potency was inconclusive [inhibitor, full curve, poor fit]. In the case of `Cc1[nH]c2ccccc2c1/C=C/c1nc2ccccc2c(=O)[nH]1`, the Potency is reported as “inactive”. In the case of `COc1ccc(-c2nnc(SCC(N)=O)n2N)cc1`, the Potency is reported as inconclusive [inhibitor, partial curve, poor fit]. `COc1ccc(OCC(=O)NNC(=O)CCc2ccccc2)cc1` was tested, and the Potency was inconclusive [inhibitor, single point]. With `Cc1ccc(-n2ncc3c(Nc4ccc(Oc5ccccc5)cc4)ncnc32)c(C)c1` the Potency was “inactive”. For `CCc1nc(Sc2nnnn2-c2ccccc2)c2c3c(sc2n1)CCCC3`, the Potency was inconclusive [inhibitor, full curve, poor fit]. With `Cc1cnc(CN2CCCC(C(=O)c3ccc4c5c(cccc35)CC4)C2)[nH]1` (configuration not stated) the Potency was “inactive”. `CC(C)C(C)NC(=O)COC(=O)C1CCN(S(=O)(=O)c2ccc3c(c2)OCCO3)CC1` (configuration not stated) was tested, and the Potency was inconclusive [inhibitor, full curve, poor fit]. `COc1ccc(-c2csc(N)n2)cc1F` was tested, and the Potency was “inactive”. For `CC(C)NCC(O)c1ccc(O)c(O)c1` (configuration not stated), the Potency was inconclusive [inhibitor, partial curve]. With `Cc1cc(Cl)c(OCCOCCN2CCN(C)CC2)c(Br)c1` the Potency was inconclusive [inhibitor, partial curve, poor fit]. `O=S(=O)(c1cccc(-c2nnc3n2CCCCC3)c1)N1CCCC1` was tested, and the Potency was inconclusive [inhibitor, partial curve]. With `COc1cc(NC(=S)NC(=O)c2ccc(F)cc2)ccc1NC(=O)c1ccco1` the Potency was “inactive”. `Nc1ncnc2c1ncn2[C@H]1C[C@H](O)[C@@H](COP(=O)(O)O)O1` was tested, and the Potency was inconclusive [inhibitor, full curve, poor fit]. For `O=C(c1cc(-c2ccccc2)nn1-c1ccccc1)N1CCN(S(=O)(=O)c2cccc(F)c2)CC1`, the Potency was inconclusive [inhibitor, partial curve, poor fit]. `COc1cc(/C=N/N=C(/N)c2nonc2N)cc(Br)c1OCc1cccc(C)c1` was tested, and the Potency was inconclusive [inhibitor, full curve, poor fit]. For `CC(OC(=O)CCN=C1NS(=O)(=O)c2ccccc21)C(=O)c1ccccc1` (configuration not stated), the Potency was inconclusive [inhibitor, full curve, poor fit]. In the case of `COc1ccc(OC)c(NS(=O)(=O)c2ccc(NC(=O)c3ccc(NS(C)(=O)=O)cc3)cc2)c1`, the Potency is reported as inconclusive [inhibitor, single point]. With `Cc1cc(=O)oc2cc(OCC(=O)N/N=C/c3cc([N+](=O)[O-])ccc3O)ccc12` the Potency was inconclusive [inhibitor, partial curve, poor fit]. For `O=C1CC(SC(=Nc2ccccc2)Nc2ccccc2)C(=O)N1c1cccc(Cl)c1` (configuration not stated), the Potency was inconclusive [inhibitor, full curve, poor fit]. With `Cc1cc(=O)n(Cc2cccc(Cl)c2)c2c1c(C)nn2C` the Potency was “inactive”. With `CC(C)(C)NC(=O)[C@@H]1C[C@@H]2CCCC[C@@H]2CN1C[C@@H](O)[C@H](Cc1ccccc1)NC(=O)[C@H](CC(N)=O)NC(=O)c1ccc2ccccc2n1` the Potency was inconclusive [inhibitor, partial curve, poor fit]. For `O=C(CN1CCN(S(=O)(=O)c2ccc3ccccc3c2)CC1)N1CCc2ccccc2C1`, the Potency was inconclusive [inhibitor, single point]. For `O=C(COc1ccc([N+](=O)[O-])cc1Cl)NCC1CCCO1` (configuration not stated), the Potency was “inactive”. With `CC(C)c1noc(-c2ccccc2OCC(=O)Nc2ccc([N+](=O)[O-])cc2)n1` the Potency was “inactive”. `Cn1cc(CNC(=O)Nc2ccc3c(c2)OCO3)cn1` was tested, and the Potency was “inactive”. In the case of `NC(=O)COC(=O)[C@H](Cc1ccccc1)NS(=O)(=O)c1ccc2c(c1)OCCO2`, the Potency is reported as inconclusive [inhibitor, single point]. For `CN(C)S(=O)(=O)c1cccc(NC(=O)c2ccc3c(c2)OCCO3)c1`, the Potency was “inactive”. In the case of `CCn1c(CNc2ccc(Cl)cc2)nnc1SCC(=O)OC1CCCCC1`, the Potency is reported as inconclusive [inhibitor, single point]. In the case of `O=C(CSc1nc(=O)n2ccccc2n1)NCc1ccc2c(c1)OCO2`, the Potency is reported as inconclusive [inhibitor, full curve, poor fit]. With `CC(C)C[C@H](NC(=O)C1CC(=O)N(c2ccc3c(c2)OCCO3)C1)C(=O)NC1CCCC1` (some centres not stated) the Potency was inconclusive [inhibitor, full curve, poor fit]. With `CCCOc1ccc(N2C(=O)CC(NCc3ccc(S(N)(=O)=O)cc3)C2=O)cc1` (configuration not stated) the Potency was “inactive”. With `Cc1cc(NC(=O)c2cc(-c3ccc(O)cc3)on2)no1` the Potency was “inactive”. With `CCN(CC)S(=O)(=O)c1ccc(Nc2cc(C)nc3ncnn23)cc1` the Potency was inconclusive [inhibitor, partial curve, poor fit]. `CCOC(=O)N1CCN(S(=O)(=O)c2ccc([N+](=O)[O-])cc2)CC1` was tested, and the Potency was inconclusive [inhibitor, full curve, poor fit]. `CC1CC(C)(C)N2C(=O)C(=C(C#N)C#N)c3cccc1c32` (configuration not stated) was tested, and the Potency was “inactive”. `COc1ccc2c(c1)c(C(O)CN1CCC(Cc3ccccc3)CC1)c(C)n2C` (configuration not stated) was tested, and the Potency was “inactive”. `C=CCn1c(-c2c(C)nc3cc(C)ccn23)n[nH]c1=S` was tested, and the Potency was inconclusive [inhibitor, full curve, poor fit]. In the case of `C[C@@H]1CCC(=O)N(CC[C@H](Sc2ccccc2)c2ccccc2)CC1`, the Potency is reported as inconclusive [inhibitor, single point]. `CCOC(=O)Cn1c(S(=O)(=O)Cc2ccc(F)cc2)nc(-c2ccccc2)c1-c1ccccc1` was tested, and the Potency was inconclusive [inhibitor, full curve, poor fit]. `COc1ccc(C(=O)NCCNc2nc3ccc(C)cc3cc2C#N)cc1` was tested, and the Potency was “inactive”. In the case of `Cc1c(C(=O)NCc2ccccn2)sc2nc(-c3ccccc3)cn12`, the Potency is reported as inconclusive [inhibitor, full curve, poor fit]. For `CCNC(=O)CSc1nc2cc(S(=O)(=O)Nc3ccc(OC)cc3)ccc2o1`, the Potency was “inactive”. In the case of `Cc1cc(SCNC(=O)c2ccccc2)nc(C(C)C)n1`, the Potency is reported as “inactive”. For `O=C(COC(=O)c1ccccc1)Nc1ccccc1Sc1ccccc1`, the Potency was inconclusive [inhibitor, partial curve]. For `COC(=O)c1ccc(N2C(=O)CC(N3CCOCC3)C2=O)cc1` (configuration not stated), the Potency was inconclusive [inhibitor, full curve, poor fit]. For `CC(C)C[C@H](NC(=O)c1[nH]cnc1C(=O)Nc1ccccc1)C(=O)OC(C)(C)C`, the Potency was “inactive”. With `Cc1ccc(Sc2ccc(N3CCCC(C(=O)Nc4ccc(F)c(Cl)c4)C3)nn2)cc1` (configuration not stated) the Potency was “inactive”. For `O=C(CN(Cc1ccco1)C(=O)Cn1nnc(-c2cccs2)n1)NCc1ccccc1`, the Potency was inconclusive [inhibitor, full curve, poor fit]. With `Cc1ccc(C)c(OCc2cc(C(=O)NC3CCN(Cc4ccccc4)CC3)no2)c1` the Potency was “inactive”. For `O=c1c2ccccc2nc(/C=C/c2cccc(Br)c2)n1CCCO`, the Potency was inconclusive [inhibitor, single point].
